The supplement of paper PMC3334620
The full ranking holds about 33,000 sequences; the median of “E-score (-0.5 to 0.5)” is about -0.012, and the highest 2% start at about 0.27. Some of the results follow.

Biological target: T1, Vhr1 (UniProt P40522)
T1 sequence: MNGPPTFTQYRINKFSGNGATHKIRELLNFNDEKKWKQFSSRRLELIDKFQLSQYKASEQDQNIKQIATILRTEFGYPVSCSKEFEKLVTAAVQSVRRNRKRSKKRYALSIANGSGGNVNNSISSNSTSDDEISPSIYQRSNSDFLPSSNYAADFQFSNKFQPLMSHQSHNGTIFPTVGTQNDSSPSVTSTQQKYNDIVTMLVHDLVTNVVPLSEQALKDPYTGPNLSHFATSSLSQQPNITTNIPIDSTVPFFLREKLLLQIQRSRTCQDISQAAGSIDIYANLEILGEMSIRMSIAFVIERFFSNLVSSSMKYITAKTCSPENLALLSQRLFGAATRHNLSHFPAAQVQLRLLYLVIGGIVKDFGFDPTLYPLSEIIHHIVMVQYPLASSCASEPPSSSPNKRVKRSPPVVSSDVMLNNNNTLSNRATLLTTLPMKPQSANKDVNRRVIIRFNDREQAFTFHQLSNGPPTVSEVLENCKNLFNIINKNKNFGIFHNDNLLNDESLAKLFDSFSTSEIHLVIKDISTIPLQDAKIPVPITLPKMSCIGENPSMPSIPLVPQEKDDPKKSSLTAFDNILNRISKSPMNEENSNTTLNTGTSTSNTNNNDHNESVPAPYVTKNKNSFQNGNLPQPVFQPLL
Assay: PBM E-score (8-mer binding enrichment) (E-score (-0.5 to 0.5)); higher = stronger / more preferred TF binding; most listed sequences are background and not binding sites
Settings: protein concentration: 200 nM; construct: GST-full length
Summary of the method: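 Yeast transcription factors, full-length or as DNA-binding domains, were expressed with a GST tag using PURExpress in vitro transcription/translation. At about 100-200 nM they were applied to universal all-10-mer Agilent arrays, double-stranded by primer extension on fresh or once-stripped slides. Fluorescent anti-GST detected bound protein, and masliner normalised the scans. E-scores for ungapped eight-base words, pooled with reverse complements, came from the Universal PBM Analysis Suite.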

| Sequence | PBM E-score |
| --- | --- |
| CGTAATAG | -0.00905 |
| ATAGTCTA | 0.0473 |
| TCCGTCCA | 0.119 |
| CCTAATTA | -0.252 |
| CCCCCATC | -0.0828 |
| GTCCTTAA | -0.00154 |
| AATCCGGC | 0.0388 |
| CTCATTTC | -0.101 |
| CGTGAACA | 0.0492 |
| AATTAGGC | -0.0883 |
| ATATGTGC | 0.0441 |
| ATTTGCCC | -0.0965 |
| ACTGGTAC | 0.15 |
| CGTCATGA | 0.267 |
| ATACCGAG | 0.106 |
| CATAGAGG | -0.0844 |
| GCGGGTAA | 0.00221 |
| AGCATTAT | 0.0302 |
| GGCCGTAC | 0.065 |
| ACCCGAAA | -0.0756 |
| ACGAGGTC | 0.0874 |
| GGGTATTA | 0.055 |

| Sequence | PBM E-score |
| --- | --- |
| ATAGCGTC | -0.163 |
| GCCACGCC | -0.214 |
| CACTTCGA | -0.00879 |
| CTACAGGC | -0.126 |
| GGTTGTAC | 0.0636 |
| CAAAAATA | -0.0959 |
| ATGAACGC | 0.0841 |
| GTCGAAAC | 0.0367 |
| TCCTATAA | 0.0419 |
| CAATAATG | -0.0412 |
| TGAAGAAA | -0.186 |
| GAAGACAA | -0.039 |
| GCCTAGAA | -0.339 |
| CTATCCGA | 0.0662 |
| CAGACTGG | 0.0405 |
| CCACATCC | 0.17 |
| CCAAATCC | -0.22 |
| ACATTTCC | 0.0349 |
| GCGAGGGA | -0.0577 |
| ACATGTTG | 0.116 |
| GATTCAGC | 0.149 |
| AGTTGCAC | 0.00832 |

| Sequence | PBM E-score |
| --- | --- |
| ATGTTAGC | -0.189 |
| ACTCAATC | 0.293 |
| TAGTTAGA | 0.0557 |
| CAGGTGCG | 0.051 |
| AGTCGTGC | 0.236 |
| AGGTCCCC | -0.186 |
| ACTGGCTC | 0.0698 |
| AATCAACG | 0.0373 |
| ACGTTCGC | -0.141 |
| AGAACGGC | 0.0802 |
| CCATGAAC | 0.241 |
| TATGGACA | -0.156 |
| AATGTCCC | -0.0256 |
| AGACCGGC | -0.0756 |
| AATCCGAA | -0.144 |
| GCATTTCA | -0.155 |
| GATATGGA | 0.22 |
| AGGTTCGG | -0.157 |
| AGGCGACA | -0.0955 |
| ATACATTA | 0.128 |
| ATCCGTGG | -0.0311 |
| AAGCTGGC | -0.163 |

| Sequence | PBM E-score |
| --- | --- |
| CAGGGAAA | -0.00931 |
| GCGACCAC | 0.0742 |
| AGAACCGA | 0.02 |
| GTACCCAA | 0.122 |
| CACATCTA | 0.0134 |
| GACTAGTC | 0.095 |
| AGTATACC | 0.112 |
| CAGAACCC | 0.0109 |
| CTGCCCTC | -0.089 |
| CCTCACAC | -0.0104 |
| ACTACTGC | 0.0737 |
| CGAGCTCC | -0.102 |
| GTTCCTAA | -0.0859 |
| CCAACTCA | 0.216 |
| ACATTGAC | 0.0886 |
| GCATGAGA | 0.143 |
| GGCACAAC | -0.00416 |
| CAAAGGTA | -0.172 |
| TGTTCCAA | -0.0908 |
| CCGCAGCG | 0.0402 |
| GAACCGTA | -0.0214 |
| GCGTAAAC | 0.0186 |

| Sequence | PBM E-score |
| --- | --- |
| CTCGCTGA | -0.206 |
| ACTTTGGC | -0.115 |
| ACTATCGA | 0.222 |
| ATAAAACG | 0.0395 |
| AGGGGTGA | -0.0936 |
| CAAACGGG | -0.0299 |
| TACAGGAA | 0.0191 |
| CTACCTTA | 0.0237 |
| ATGATTCG | 0.412 |
| GAGTTCTA | -0.247 |
| AGCGTGAT | 0.185 |
| GTACGTCA | -0.109 |
| CCTTTCAC | -0.206 |
| ATTGGCCG | -0.13 |
| CAACGCTC | -0.0105 |
| CAGAGGAG | -0.0542 |
| CCTTGGCC | -0.278 |
| GCATATTA | 0.0513 |
| GCGTTTCC | -0.143 |
| AGTCGTAG | 0.217 |
| AGGCGAAG | -0.12 |
| CCGCCCAA | 0.0168 |
